# Source: PubChem BioAssay AID485344 (National Center for Advancing Translational Sciences (NCATS), 2010)
# “And” between values parts separate entries of the source, which are not always exact repeats. Equal values may be shown once. The campaign covered roughly 340,000 compounds. About 6,900 (2%) were called active. No stated cut-off is given here; in the data, active means inhibition above about 30%; inactive means below that, where a call was filed. Only a part is listed here, and it is no random draw. The source gives no active or inactive call for entries shown without one.
# Molecular target: D(2) dopamine receptor (Homo sapiens) (UniProt P14416)
# UniProt P14416, sequence (P14416 whole entry, looked up): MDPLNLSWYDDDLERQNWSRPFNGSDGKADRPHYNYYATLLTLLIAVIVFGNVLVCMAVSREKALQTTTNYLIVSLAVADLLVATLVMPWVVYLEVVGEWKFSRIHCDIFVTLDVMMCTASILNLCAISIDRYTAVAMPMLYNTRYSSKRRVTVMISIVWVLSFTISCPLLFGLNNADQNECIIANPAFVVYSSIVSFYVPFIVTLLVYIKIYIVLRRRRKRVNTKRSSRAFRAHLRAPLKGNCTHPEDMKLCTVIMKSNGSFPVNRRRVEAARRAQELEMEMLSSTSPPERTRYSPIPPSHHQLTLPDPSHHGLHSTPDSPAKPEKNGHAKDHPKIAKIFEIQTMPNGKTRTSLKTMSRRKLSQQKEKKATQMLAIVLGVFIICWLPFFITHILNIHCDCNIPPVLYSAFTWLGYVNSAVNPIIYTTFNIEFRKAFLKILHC
# Assay: HTS Assay for Allosteric Antagonists of the Human D2 Dopamine Receptor: Primary Screen for Antagonists; further: 0% is about no effect
# Details: HEK293 TREx D2 cells, calcium flux, dopamine EC80; at 10 µM; stronger effect = higher value
# In short: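 Compounds are added to dye-loaded, induced HEK293 T-REx cells coupled to calcium release via D2; after a 3 min kinetic read an EC80 dopamine stimulus is given and fluorescence is recorded for 3 more min.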
row,SMILES,inhibition
1,CCOC(=O)c1c(NC(=O)/C=C/c2ccc(OCC)cc2)sc2c1CCC2,-2.68%
2,Cc1ccc(CNC(=O)Cn2cc(C(=O)c3ccc(Cl)cc3)c(=O)c3ccc(C)nc32)cc1,5.68%
3,Cc1ccccc1CNC(=O)c1ccc2c(c1)N(Cc1ccccc1)CCS2,-1.78%
4,Cc1cccc(C)c1Nc1c(-c2ccccc2O)nc2ncccn12,6.16%
5,O=C(CCCn1c(=O)c2cccn2c2cccnc21)Nc1ccccc1Br,4.39%
6,O=c1oc2ccc3ccccc3c2cc1-c1nnc(Nc2cccc(F)c2)s1,7.09%
7,COc1cccc(CNC(=O)c2ccc(CS(=O)Cc3ccc(Cl)cc3)o2)c1 (configuration not stated),3.08%
8,Cc1ccc(C(=O)CSc2nnc3ccc4ccccc4n23)cc1,-8.89%
9,Cc1ccc(CNC(=O)C2CCN(c3ncnc4c3nc3n4CCCCC3)CC2)cc1,-2.78%
10,Cc1ccc(NC(CNS(=O)(=O)c2ccc(Cl)cc2)c2ccccc2)cc1 (configuration not stated),-6.07%
11,CCOC(=O)C1CCCN(S(=O)(=O)c2cc(-c3cc(C)no3)ccc2C)C1 (configuration not stated),0.059%
12,Cc1cccc(N(C)c2nc3ccc(C)cc3n3nnnc23)c1,-2.8%
13,CCC(=O)N1c2ccc(S(=O)(=O)N3CCN(c4ccccc4Cl)CC3)cc2CC1C (configuration not stated),17.7%
14,COc1ccc(-c2csc(C3=C(O)CN(Cc4ccc(Cl)cc4)C3=N)n2)cc1OC,active: 73.5%
15,O=C(NC1CCCCC1)/C(=C/c1ccc(Cl)cc1)NC(=O)c1ccccc1,3.65%
16,COc1ccc(NS(=O)(=O)c2coc(C(N)=O)c2)cc1Cl,active: 30.8%
17,CCN(CC)C(=O)c1ccccc1NC(=O)c1cccc(S(=O)(=O)N2CCC(C)CC2)c1,-8.85%
18,CC(C)COP(=O)(OCC(C)C)C(O)c1ccccc1F (configuration not stated),active: 52.4%
19,CCOc1ccc(CCNC(=O)c2nn(-c3ccc(OC)cc3)c(=O)c3c2c2ccccc2n3C)cc1OCC,2.17%
20,S=C(NCC1CCCO1)Nc1ccc(Nc2ccccc2)cc1 (configuration not stated),active: 40%
21,O=C(Cc1ccc(F)cc1)NCCc1csc(-c2ccc(C(F)(F)F)cc2)n1,-15%
22,Cc1ccc2[nH]c3c(=O)n(CC(=O)N(C)Cc4ccccc4)ncc3c2c1,-5.15%
23,Cn1c(CN2CCCCC2)nc2cc(NC(=O)c3ccc(Cl)cc3)ccc21,active: 30.9% and -13.5%
24,CCCN(C(=O)Cn1nc(Cc2ccncc2)c2ccccc2c1=O)c1ccccc1C,0.593%
25,CCOc1ccc(-c2nnc(SCC(=O)NCCc3ccccc3)nc2-c2ccc(OCC)c(OC)c2)cc1OC,-1.95%

row,SMILES,inhibition
1,COc1ccc(Br)cc1CNC(=O)c1ccc(-n2c(C)cc3c2CCC(C)C3)cc1 (configuration not stated),8.44%
2,COCCCn1c(=N)c(C(=O)NC2CCCC2)cc2c(=O)n3cc(C)ccc3nc21,-15.3%
3,Cc1cccc(C(=O)Nc2nnc(S(=O)(=O)N3c4ccccc4CC3C)s2)c1 (configuration not stated),15.9%
4,Cc1cc(O)c(CN2CCN(c3ccc(F)cc3)CC2)c2oc(=O)cc(C)c12,17.2%
5,CCOc1ccccc1C1Nc2ccccc2-c2nnc(SCc3ccccc3)nc2O1 (configuration not stated),-17.1%
6,Cc1ccccc1CN1C(=O)C(O)(CC(=O)c2cccc(Br)c2)c2ccccc21 (configuration not stated),2.75%
7,COC(=O)c1[nH]c2cccc(OC)c2c1NC(=O)CCN1CCN(c2cccc(Cl)c2)CC1,active: 38.3%
8,CCOc1ccc(OCC)c(NC(=O)c2c(C)nn(-c3ccccc3)c2-n2cccc2)c1,12.2%
9,COc1ccc(CCCc2nnc(SCC(=O)Nc3ccc(Cl)cc3)o2)cc1,-0.476%
10,Cc1nn(C)c2c1c(C(F)(F)F)cc(=O)n2CC(=O)NC(C)(C)C,-13.8%
11,Cc1oc2ncnc(N3CCCCC3)c2c1C(=O)Nc1cccc(F)c1,3.89%
12,CCc1ccccc1NC(=O)c1ccc2[nH]c(C)c(C)c2c1,-8.26%
13,CCc1ccc(CNC(=O)c2sc3ncnc(N(C)C4CCCCC4)c3c2C)cc1,8.85%
14,COc1ccc(-c2cc(-c3ccc(F)cc3)nc3c2COc2ccccc2-3)cc1,-9.05%
15,COC(=O)c1ccccc1NC(=O)CCCS(=O)(=O)c1nc(-c2ccccc2OC)cc(C(F)(F)F)n1,-6.09%
16,CCOC(=O)CNC(=O)Cn1nc(N2CCN(c3ccccc3)CC2)ccc1=O,-3.06%
17,CC(=O)c1cccc(NC(=O)c2cc(-c3ccc4c(c3)OCCO4)on2)c1,-20.1%
18,COCCn1c(CNC(=O)c2cc(OC)c(OC)c(OC)c2)nc2cccnc21,-8.48%
19,CCN(c1cccc(C(F)(F)F)c1)S(=O)(=O)c1ccc2c(c1)CCN2C(C)=O,active: 31%
20,CCN(CC)C(=O)C1CCCN(c2ncnc3c2nc2n3CCCCC2)C1 (configuration not stated),0.575%
21,COc1ccc(CCNC(=O)c2cc3c(=O)[nH]c4ccc(C)cc4c3s2)cc1OC,9.98%
22,CS(=O)(=O)N1CCC(N2CCN(Cc3ccc(F)cc3)C(=O)C2=O)CC1,10.3%
23,CSc1ccc(CCNC(=O)c2ccc3c(c2)c(C)c(C)n3Cc2ccc(F)cc2)cc1,9.7%
24,CCn1c(CN2CCN(C)CC2)nc2cc(NC(=O)c3cc(OC)c(OC)c(OC)c3)ccc21,13.3%
25,Cc1cc(NC(=O)CSc2ncc(C(=O)Nc3ccccc3)c(=O)n2C)no1,0.141%

row,SMILES,inhibition
1,COc1ccccc1CNC(=O)C(Cc1ccccc1)NS(=O)(=O)c1ccc2c(c1)CCN2C(C)=O (configuration not stated),-14.3%
2,Cc1ccccc1NC(=O)c1ccc(CNS(=O)(=O)c2ccc3c(c2)C(C)(C)C(=O)N3C)cc1,-7.68%
3,O=C(NCc1ccccn1)c1nn(-c2ccccc2Cl)nc1CO,1.5%
4,CSc1ncc(C(=O)Nc2cccc(Cl)c2C)c(-c2ccccc2)n1,-1.61%
5,CCN(CC)C(=O)C1=C(C)Nc2nc3ccccc3n2C1c1ccc(Cl)cc1 (configuration not stated),18.2%
6,Cc1ccc(Cl)cc1N(C)C(=O)c1cc2ccc3cccnc3c2[nH]1,5.45%
7,CCNC(=O)CC1C(=O)N(c2ccc(F)cc2)C(=O)N1Cc1ccc(C)cc1 (configuration not stated),-1.17%
8,CCCCOc1ccc(C(=O)NCCc2csc3nc(-c4ccccc4F)nn23)cc1,20.9%
9,O=C(Nc1cccc(Br)c1)N1CCC(CN2CCCCCC2)CC1,-4.35%
10,COc1cccc(CNC(=O)CN(c2ccc(C(C)C)cc2)S(=O)(=O)c2c(C)noc2C)c1,0.442%
11,CCOC(=O)c1sc(NC(=O)c2cc3nc(-c4ccccc4)cc(C(F)(F)F)n3n2)c(C(=O)OCC)c1C,-4.7%
12,CCOC(=O)c1cc(-c2ccccc2)n(-c2cccc(C(=O)Nc3cc(OC)cc(OC)c3)c2)c1C,8.47%
13,Cc1cc(C)cc(Oc2c(C(F)(F)F)oc3cc(OCC(=O)NC4CCCCC4)ccc3c2=O)c1,3.18%
14,CCOc1ccc(NC(=O)c2oc3ccccc3c2NC(=O)c2cc(C)cc(C)c2)cc1,-3.04%
15,COc1ccc(CCNC(=O)Cn2ncc3c(=O)oc4ccccc4c32)c(OC)c1,5.55%
16,CCOc1ccc(NC(=O)c2cnc(Nc3ccccc3OC)c3ccccc23)cc1,-0.722%
17,CCc1ccc2oc(-c3cc(NC(=O)c4cccnc4)cc(C)c3O)nc2c1,-17.1%
18,N#CC(C#N)=C1C=C2C=C(N3CCCCC3)CCC2CC1 (configuration not stated),active: 86.8%
19,Cc1cccc(Cc2c(C)nc3nc(SCC(=O)NCc4ccccc4)nn3c2C)c1,-1.86%
20,CC(C)Oc1ccc(CNC(=O)c2cccc(NC(=O)N3CCSc4ncccc43)c2)cc1,-1.7%
21,CCC(=O)N1CCc2cc(Br)cc(S(=O)(=O)N3CCCC(C(=O)Nc4cccc(F)c4)C3)c21 (configuration not stated),8.5%
22,CCOC(=O)CSc1nc2sc3c(c2c(=O)n1-c1ccccc1)CCC(C(C)(C)C)C3 (configuration not stated),-8.74%
23,COc1ccc(NC(=O)c2cc(CN3CCCC3)on2)cc1Cl,0.435%
24,Cc1ccccc1C(=O)Oc1c(Sc2ccccc2)c(C)nn1C(C)(C)C,-3.52%
25,Cc1ccc(C(=O)Nc2nnc(S(=O)(=O)N3CCc4ccccc43)s2)cc1,0.877%

row,SMILES,inhibition
1,Cc1cccc(C)c1N1CCN(CCn2c(=S)[nH]c3ccccc3c2=O)CC1,active: 71.4%
2,O=C(Nc1cccnc1)c1cc(-c2cccc(Cl)c2)on1,26.1%
3,O=C(NCc1ccc(F)cc1)c1cc(-c2ccc(Cl)cc2)n[nH]1,-5.9%
4,CCc1ccc(S(=O)(=O)c2nnn3c2nc(Nc2ccc(F)cc2)c2cc(Cl)ccc23)cc1,1.73%
5,CCC(C)NC(=O)CCSc1nc(-c2ccc(OC)cc2)cc(C(F)(F)F)n1 (configuration not stated),2.12%
6,O=C(O)c1cccc(Nc2ncnc3scc(-c4ccccc4)c23)c1,19.2%
7,COc1cccc(-n2c(-c3cccc(F)c3)nc3c(cnn3-c3ccc(C)cc3)c2=O)c1,5.82%
8,CCc1cnc2c(c1SCC(=O)c1ccc(OC)cc1)c(=O)n(C)c(=O)n2C,-1.51%
9,Cc1cc(C(=O)CSc2nnc(N)s2)c(C)n1CCc1ccc(F)cc1,active: 42.6%
10,COc1ccccc1CNC(=O)CC(c1ccc(OC)c(OC)c1)N1Cc2ccccc2C1=O (configuration not stated),2.99%
11,COc1ccc(OC)c(/C=C/C(=O)Nc2ccc(C(=O)OCCC(C)C)cc2)c1,14%
12,O=S(=O)(NCc1ccc(Cl)cc1)c1ccc(-c2cnc(C3CC3)o2)cc1,13.8%
13,Cc1ccccc1CN1C(=O)c2ccccc2Sc2ccc(C(=O)NC3CCCC3)cc21,2.03%
14,CCN(Cc1ccccc1)c1ncnc2c1nnn2C,10.6%
15,CCN(CC)CCNC(=O)Nc1ccc2c(c1)N(Cc1ccccc1)C(=O)c1ccccc1S2,-2.56%
16,COc1ccc(N2CC(NC(=O)c3ccc(S(=O)(=O)N4CCOCC4)cc3)CC2=O)cc1OC (configuration not stated),-14.8%
17,CCc1ccc(S(=O)(=O)N(C(=O)Oc2ccccc2)c2ccc3oc(C)c(C(=O)OC)c3c2)cc1,-7.53%
18,CCCCNC(=O)C1CCC(CNS(=O)(=O)c2ccc(Cl)cc2)CC1 (configuration not stated),14%
19,CCCCOc1cccc(C(=O)N(Cc2cccs2)c2ccc(OC)cc2)c1,4.67%
20,NC(=O)c1ccc(C(F)(F)F)n(Cc2cccc(Cl)c2)c1=O,active: 31.9%
21,CC(=O)NCCn1c(SCC(=O)Nc2ccc(C)cc2)nc2ccccc2c1=O,2.07%
22,CC(C)(C)c1ccc(-c2nc(SCC(=O)Nc3ccc(Cl)cc3)[nH]c(=O)c2C#N)cc1,25.5%
